Reference: publication PMC5158307, “Substrate specificity characterization for eight putative nudix hydrolases. Evaluation of criteria for substrate identification within the Nudix family” (Proteins, 2016)

Target: T1, B9WTJ0_STRSU (Streptococcus suis, UniProt A0A0H3MW56)
T1 construct: gene SSUBM407_1338
T1 sequence (A0A0H3MW56 1-205): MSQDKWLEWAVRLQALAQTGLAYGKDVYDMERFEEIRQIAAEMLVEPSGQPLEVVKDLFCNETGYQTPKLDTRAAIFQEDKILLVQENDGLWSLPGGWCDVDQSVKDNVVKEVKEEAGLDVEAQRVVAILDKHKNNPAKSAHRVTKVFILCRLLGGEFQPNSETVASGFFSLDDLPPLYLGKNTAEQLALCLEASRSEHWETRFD
Test: Pi-sensor plate-reader screen
Settings: 5 μM substrate, pH 7.6, 37 °C, 1 mM MgCl2

Compound	Pi-sensor plate-reader screen
Nc1nc2c(ncn2[C@@H]2O[C@H](COP(=O)(O)OP(=O)(O)OP(=O)(O)OP(=O)(O)OP(=O)(O)OC[C@H]3O[C@@H](n4cnc5c(=O)[nH]c(N)nc54)[C@H](O)[C@@H]3O)[C@@H](O)[C@H]2O)c(=O)[nH]1 [Gp5G]	B9WTJ0_STRSU catalyzes the hydrolysis of a variety of dinucleotide polyphosphates such as Ap5U and Gp5G.
Nc1ncnc2c1ncn2[C@@H]1O[C@H](COP(=O)(O)OP(=O)(O)OP(=O)(O)OP(=O)(O)OP(=O)(O)OC[C@H]2O[C@@H](n3ccc(=O)[nH]c3=O)[C@H](O)[C@@H]2O)[C@@H](O)[C@H]1O [Ap5U]	B9WTJ0_STRSU catalyzes the hydrolysis of a variety of dinucleotide polyphosphates such as Ap5U and Gp5G.
